# Reference: the supplement of paper PMC3334620
# Whole data set: some 33,000 sequences, median “E-score (-0.5 to 0.5)” near -0.054, cut for the highest 2% near 0.35. The list shows a part of the results.
# Target: T1, Stb5 (UniProt P38699)
# T1 sequence: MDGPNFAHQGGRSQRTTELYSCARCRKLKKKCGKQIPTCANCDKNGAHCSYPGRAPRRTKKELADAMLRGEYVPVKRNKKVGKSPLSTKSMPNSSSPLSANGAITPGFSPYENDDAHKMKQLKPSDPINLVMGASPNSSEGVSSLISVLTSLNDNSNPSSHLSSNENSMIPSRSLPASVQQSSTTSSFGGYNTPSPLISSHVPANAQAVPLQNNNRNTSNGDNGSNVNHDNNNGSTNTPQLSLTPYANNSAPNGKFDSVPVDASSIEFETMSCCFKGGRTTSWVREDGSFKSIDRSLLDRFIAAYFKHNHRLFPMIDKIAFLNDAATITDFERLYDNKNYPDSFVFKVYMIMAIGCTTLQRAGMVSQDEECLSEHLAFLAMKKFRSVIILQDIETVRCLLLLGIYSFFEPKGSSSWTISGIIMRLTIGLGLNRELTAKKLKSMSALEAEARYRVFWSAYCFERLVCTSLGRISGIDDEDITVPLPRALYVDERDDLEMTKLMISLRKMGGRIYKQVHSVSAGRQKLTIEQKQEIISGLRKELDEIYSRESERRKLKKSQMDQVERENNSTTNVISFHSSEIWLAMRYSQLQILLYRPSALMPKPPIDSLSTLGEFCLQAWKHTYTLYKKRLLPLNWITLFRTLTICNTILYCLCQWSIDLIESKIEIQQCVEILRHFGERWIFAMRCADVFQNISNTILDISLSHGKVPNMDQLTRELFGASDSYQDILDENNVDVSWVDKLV
# Experiment: PBM E-score (8-mer binding enrichment) (E-score (-0.5 to 0.5)); higher = stronger / more preferred TF binding; most listed sequences are background and not binding sites
# Conditions: protein concentration: 200 nM; construct: GST-full length
# Outline: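 The E-score, a modified Wilcoxon-Mann-Whitney statistic, was computed by the Universal PBM Analysis Suite for every ungapped eight-base word pooled with its reverse complement. Scans behind it were normalised with masliner after bound GST-tagged yeast transcription factors were detected with fluorescent anti-GST. The proteins, at about 100-200 nM, had been applied to universal all-10-mer Agilent arrays made double-stranded by primer extension.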
row,Sequence,PBM E-score
1,AACGCTTG,-0.143
2,AAACCCTC,-0.0384
3,TGTATAAA,-0.026
4,ACAGAACC,-0.131
5,TACTATAA,0.0655
6,CAGCAACC,-0.0927
7,CGAGAGCG,0.0103
8,ACCCATAT,-0.252
9,GTTTACGA,-0.24
10,AACGATGA,0.0901
11,CAGGCGCG,-0.0248
12,CCGCTCCG,0.361
13,ACTCGGAG,0.0913
14,AATAGGTC,0.164
15,ACCGATTA,0.312
16,GCCCGGAC,0.29
17,AAACCACT,-0.109
18,AATAGCGA,0.0264
19,CTGATTGA,-0.0894
20,GAACAGGC,-0.181
21,CCTCCGAA,0.0721
22,AATACCTG,-0.0286
23,ACTCGCTA,0.00748
24,GCACTTCC,-0.0868
25,GCAATCAC,0.19

row,Sequence,PBM E-score
1,AATGAGGC,-0.0256
2,ATTCCCAC,-0.0437
3,AAAGGCGG,0.267
4,TAGGCAAA,0.00762
5,CAAATGCC,0.308
6,CCGAGCGA,0.141
7,GGGATAAC,0.225
8,AAGACCCG,0.325
9,AATAGGCT,-0.0163
10,CTAATTGC,-0.00404
11,CAGCGCCC,0.0893
12,GGGTCTCA,0.00241
13,CCTGTTGC,-0.102
14,GTCGGCAA,0.276
15,ACCGACTA,0.318
16,AGCTGCAA,-0.141
17,GACCCCGA,0.377
18,GGGTGGAC,-0.087
19,CGATTTGA,-0.0937
20,GAACTCCC,0.0614
21,ACTTTATC,0.00836
22,GGGCCTCA,-0.0159
23,GGAGCTTA,0.161
24,TACTTCGA,-0.0536
25,ACGTAAAC,-0.116

row,Sequence,PBM E-score
1,AAACCGTC,0.135
2,GGGCTAGA,0.118
3,AATGCTAT,-0.0247
4,ACTCCTCC,-0.0151
5,AGGCATGA,-0.251
6,TCGAAAAA,0.128
7,AAGCCTCA,-0.161
8,TCTCCTAA,-0.238
9,AACAGCGC,0.346
10,GGTTCCAA,0.251
11,ACAACTAG,-0.0413
12,AGGTCGAT,-0.0145
13,GGCTTCCC,-0.184
14,GATACGAC,0.0298
15,ACTCTTAG,-0.262
16,GATCTCCA,-0.155
17,GAACCAAC,-0.116
18,ATCCGCCA,0.18
19,GATATCGA,-0.12
20,ACGTTCAT,-0.285
21,GACACCCA,-0.181
22,GGGCCAGA,-0.0992
23,AAGAATCT,-0.021
24,ACGTTAGA,-0.116
25,CAGACGAC,-0.253

row,Sequence,PBM E-score
1,CAAACGCC,0.243
2,AAGTCACA,-0.203
3,GGAATGAC,0.00773
4,GGTTCCCA,-0.169
5,CGCCGTTA,0.356
6,AAATCAGT,-0.0369
7,ATTGGAGC,-0.193
8,CCCAACAG,-0.245
9,ATAACCAC,0.17
10,GTCACGAC,-0.047
11,AGTGATAC,-0.128
12,ATGTCTAA,-0.172
13,GAACAGGA,-0.0775
14,CAAGTTGC,-0.0787
15,CCTCCACA,-0.152
16,GTGCCTTA,-0.11
17,AGTACCTC,-0.144
18,GTTTAACA,0.0292
19,ACTCGTAC,-0.0512
20,GGCTAACA,0.075
21,CCAACTGG,-0.18
22,ATTAACTA,-0.0846
23,ATACCGAC,0.398
24,ATTAATGG,0.061
25,ATATACCA,-0.252

row,Sequence,PBM E-score
1,GCTGAGTA,-0.108
2,TAGGTGGA,-0.298
3,CCATATAG,-0.0251
4,GGATCATA,0.0145
5,AAATATAC,-0.0341
6,AACTAGTT,-0.266
7,GTTCTCCA,-0.149
8,CGACCAAA,0.0296
9,CGTATGGA,0.0515
10,CACACTTA,-0.143
11,GCAACGTA,-0.284
12,GAGGAGTA,-0.0784
13,AGTGGCTG,-0.126
14,AGGCCTGA,-0.167
15,CGATCCAA,0.0254
16,ATCGAATG,-0.156
17,CTATGTAA,0.0267
18,AGCACTAT,-0.215
19,CTAAAAGA,-0.0349
20,ATCCGATC,0.235
21,TATATTGA,0.0442
22,ACAACATC,-0.0505
23,GCTTATCA,-0.0923
24,AATAACGC,0.109
25,GGTGAACC,0.0716

row,Sequence,PBM E-score
1,CCCCGATA,0.339
2,CTCGTGGC,-0.152
3,AGTCTATC,-0.111
4,CCCTTAAG,-0.0232
5,CCGGTGTA,0.366
6,AGTTAGAA,0.136
7,CCTAAGTA,-0.104
8,AACGGCCT,0.272
9,ACTGCACG,-0.037
10,CGCTCGTC,0.0535
11,GATGATTA,0.142
12,CGTCCGCA,0.145
13,ACGTTTCC,-0.124
14,CGCTCCAA,0.0195
15,GTTCTAAA,0.0991
16,TCGAGGAA,-0.24
17,AACACTTG,-0.273
18,GCCTACAA,-0.0321
19,CCCCGAGA,0.2
20,AACGGTGG,0.245
21,AGAAGCTC,-0.269
22,CATAAGAG,-0.148
23,GGAGTGCC,0.127
24,AGAGAGGG,-0.247
25,CATGCAGC,0.0741

row,Sequence,PBM E-score
1,AAAGCTGC,0.00436
2,ATGCCTCG,-0.187
3,ACCGGGCA,0.276
4,GTCAATCA,-0.128
5,AATGAGCC,-0.0951
6,AAATGTCT,-0.13
7,ATCTTCCC,0.0175
8,CCAAGATC,-0.211
9,AACCGATG,0.143
10,GCCCGACA,0.334
11,ACGATGAC,-0.0132
12,CGCGTCCG,0.0546
13,GCCTACCC,-0.13
14,ATCGGAAA,0.149
15,GTTCAAGA,-0.151
16,ATGGAGCA,-0.13
17,GCCCTACC,-0.0725
18,CCGCCGTC,0.29
19,AACTCCTC,-0.117
20,GCGGCATA,0.33
21,TACTTACA,-0.19
22,TAATGAAA,-0.208
